Consider 21 compounds from the supplement of paper PMC10600219.

Structures are written as SMILES. Counter-ions that a name gives are not always drawn. Whole data set: some 2,800 compounds, median “cell viability relative to vehicle” near 0.98, cut for the lowest 2% near 0.45. The list shows a part of the results.

The assay concerns NCI-H2228 alectinib-DTP. The assay can be described thus: cell viability relative to vehicle (fraction of vehicle); NCI-H2228 is an ALK-positive lung cancer line and DTP means drug-tolerant persister; higher = less growth inhibition. The settings on record: 100 nM; treatment time 6 days. In outline:
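Values give cell viability as a fraction of vehicle-treated cells. Parental and drug-tolerant persister NCI-H2228 cells (persisters made with 1000 nM of a targeted drug for 13 days) were exposed in 384-well plates to the 3114-agent TargetMol anti-cancer compound library at 100 nM, with DMSO as vehicle. ATP was then read after 6 days by the CellTiter-Glo 3D Cell Viability Assay.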
`N[C@@H](CSCCB(O)O)C(=O)O` gave a cell viability of 0.835.

In the case of `CNCCCC1c2ccccc2C=Cc2ccccc21` [Protriptyline hydrochloride], the cell viability turned out to be 0.951.

`COc1cc(-c2cn(C)c(=O)c3cnccc23)cc(OC)c1CN(C)C` registered a cell viability of 0.851.

Regarding `O=[N+]([O-])c1ccc(-c2nc(-c3ccc(F)cc3)c(-c3ccncc3)[nH]2)cc1`, the cell viability stood at 0.866.

With `CC1(C)CC[C@]2(C(=O)O)CCC3=C([C@@H](CCl)C[C@@H]4[C@@]5(C)C[C@H](O)[C@H](O)[C@@](C)(C(=O)O)[C@@H]5CC[C@@]34C)[C@@H]2C1` [Senegenin], the cell viability came to 0.889.

Regarding `CC(CN1c2ccccc2S(=O)(=O)c2ccccc21)N(C)C` (stereo unspecified) [Dioxopromethazine hydrochloride], the cell viability amounted to 0.927.

Regarding `COc1ccccc1C(=O)Nc1cc2c(cc1N1CCCC1)n(C)c(=O)n2C`, the cell viability worked out at 1.1.

In turn, `Cc1cc(C(=O)NOCCO)c(Nc2ccc(I)cc2F)n(C)c1=O` yielded a cell viability of 0.693.

Regarding `COc1cc(-c2cn(C)c(=O)c3cnccc23)c(OC)cc1CN(C)C`, the cell viability came to 1.05.

In turn, `CC1(C)S[C@@H]2[C@H](NC(=O)[C@H](N)c3ccc(O)cc3)C(=O)N2[C@H]1C(=O)O` [Amoxicillin trihydrate] gave a cell viability of 0.885.

As to `CCC(=O)O[C@@H](O[P@](=O)(CCCCc1ccccc1)CC(=O)N1C[C@H](C2CCCCC2)C[C@H]1C(=O)O)C(C)C` [Fosinopril sodium], the cell viability came out at 0.815.

With `COc1cccc2c1C(=O)c1c(O)c3c(c(O)c1C2=O)C[C@@](O)(C(=O)CO)C[C@@H]3O[C@H]1C[C@H](N)[C@H](O)[C@H](C)O1` [Doxorubicin hydrochloride], the cell viability is 0.741.

In the case of `OCCOCCN1CCN(C2=Nc3ccccc3Sc3ccccc32)CC1` [Quetiapine Fumarate], the cell viability is 0.94.

Compound `Cc1nc(Nc2cnn(C3CCNCC3)c2)nc2c1N(C)C(=O)c1cc3ccccc3cc1N2C` registered a cell viability of 1.01.

With `C=C1CCC[C@]2(C)C=C3OC(=O)C(C)=C3C[C@@H]12` [Atractylenolide I], the cell viability came out at 1.07.

`O=C(C=Cc1ccccc1)NC(NC(=S)Nc1ccc(Cl)cc1)C(Cl)(Cl)Cl` (stereo unspecified) registered a cell viability of 0.938.

As to `CCCCCCCCC[C@H](O)CC(=O)CCc1ccc(O)c(OC)c1` [10-Gingerol], the cell viability stood at 1.05.

In turn, `Cc1cccc(C(=O)O)c1O` [Hydroxytoluic acid] came in with a cell viability of 1.07.

As to `CC(C)(CNC(=O)c1cccc(-c2noc(C(F)(F)F)n2)c1)c1coc(-c2ccccc2)n1`, the cell viability came to 1.05.

In turn, `Nc1nc(Cl)nc2c1ncn2[C@H]1C[C@H](O)[C@@H](CO)O1` [Cladribine] displayed a cell viability of 0.493.

Regarding `O=C([C@@H](Cc1cccc(C(F)(F)F)c1)NS(=O)(=O)c1cc(F)c2c(c1)CCNC2)N1CCCC1` [(R)-PFI-2 hydrochloride], the cell viability amounted to 0.974.
